{"source": "PubChem BioAssay AID624296", "about": "(National Center for Advancing Translational Sciences (NCATS), 2012)", "note": "In all, about 350,000 compounds went through this assay and about 9,900 (2.8%) were called active. The inconclusive results got no clear call from the source; some entries with a clear call stand among them for comparison. Calls come from the whole dose curve; as a rule, active = well fitted activation curve with a large enough effect; inconclusive = small, poorly fitted or top-dose-only effect; inactive = no such curve, though single readings can be large or run the other way. No potency is given beside an inconclusive call; the fits are too rough. Potency is the fitted concentration of half-maximal effect; tags give direction and shape of the fitted curve.", "data": [{"assay": "A quantitative high throughput screen for small molecules that induce DNA re-replication in MCF 10a normal breast cells; note: nearly all actives have a fitted effect of over 50% in size.", "details": "MCF 10A DNA re-replication, Hoechst nuclear intensity, 48 h; series mostly up to 46.1 µM", "values": [{"compound": "COC(=O)c1cn(C(=O)c2ccccc2Cl)c2ccccc12", "Potency": "inconclusive [activator, single point]"}, {"compound": "Cc1cc(OC(=O)c2cccc(F)c2)c([N+](=O)[O-])c(=O)[nH]1", "Potency": "inactive"}, {"compound": "CN(C)S(=O)(=O)c1ccc(NC(=O)c2cc(F)c(F)cc2Cl)cc1", "Potency": "inactive"}, {"compound": "COc1ccc(CCC(=O)OCC(=O)c2ccc(C)cc2)cc1", "Potency": "inconclusive [activator, single point]"}, {"compound": "CCCCNC(=O)Nc1c(C)cc(SC#N)cc1C", "Potency": "inconclusive [activator, partial curve]"}, {"compound": "COc1ccc2c(=O)c(-c3ccc4c(c3)OCO4)coc2c1", "Potency": "inactive"}, {"compound": "CS(=O)(=O)Nc1cccc(C2=NN(C(=O)c3ccco3)C(c3cccs3)C2)c1", "note": "(stereo unspecified)", "Potency": "inconclusive [activator, single point]"}, {"compound": "COCCN1CCN(c2cc(-c3ccccc3)nc3cc(-c4cccc(F)c4)nn23)CC1", "Potency": "active: 20.6 µM"}, {"compound": "CC(=O)OC1CC2(C)C(=O)CCC2C2CCc3cc(O)ccc3C12", "note": "(stereo unspecified)", "Potency": "inconclusive [activator, full curve]"}, {"compound": "O=C(O)c1cc(S(=O)(=O)Nc2ccc3cn[nH]c3c2)ccc1O", "Potency": "inactive"}, {"compound": "Cc1ccc(S(=O)(=O)NC2c3cccc4cccc(c34)C2Sc2nc(C)cc(C)n2)cc1", "note": "(stereo unspecified)", "Potency": "inconclusive [activator, single point]"}, {"compound": "COc1ccc2cc(C(=O)/C=C/c3cc(OC)c(OC)c(OC)c3)ccc2c1", "Potency": "active: 13 µM"}, {"compound": "CC12CCC(C/C1=N/NC(=O)COc1ccccc1Cl)C2(C)C", "note": "(stereo unspecified)", "Potency": "inconclusive [activator, full curve, poor fit]"}, {"compound": "CC(=O)c1c(C)[nH]c(C(=O)CSc2nnc(-c3ccccc3)o2)c1C", "Potency": "inconclusive [activator, partial curve, poor fit]"}, {"compound": "COc1ccc(C(C)C)cc1S(=O)(=O)N1CCN(c2ccccc2)CC1", "Potency": "inconclusive [activator, single point]"}, {"compound": "CC(CC(=O)Nc1ccc(C(N)=O)cc1)c1ccccc1", "note": "(stereo unspecified)", "Potency": "inactive"}, {"compound": "O=C1c2cccc(OCc3ccc(F)cc3)c2CCN1Cc1ccc(F)cc1", "Potency": "active: 20.6 µM"}, {"compound": "O=C(CCNC(=O)C1CCN(S(=O)(=O)c2ccc(F)cc2)CC1)NCc1ccc(Cl)cc1", "Potency": "inactive"}, {"compound": "O=C(N/N=C/c1c(O)n(-c2ccccc2Cl)c(=O)c2ccccc12)c1cccnc1", "Potency": "inconclusive [activator, single point]"}, {"compound": "Cc1oc2cc(O)ccc2c(=O)c1Oc1ccccc1", "Potency": "inconclusive [activator, single point]"}, {"compound": "O=c1cc(-c2ccccc2Cl)oc2c(NS(=O)(=O)c3cccc4nsnc34)ccc(O)c12", "Potency": "inconclusive [activator, partial curve, poor fit]"}, {"compound": "CCc1cc2c(=O)c(-c3nc4ccccc4[nH]3)coc2cc1OC(=O)N1CCOCC1", "Potency": "inconclusive [activator, partial curve, poor fit]"}, {"compound": "CCOC(=O)Cc1csc(NC(=O)COc2ccc3c(C)cc(=O)oc3c2)n1", "Potency": "inconclusive [activator, single point]"}, {"compound": "CSCCC(NC(=O)c1cc(S(=O)(=O)N2CCOCC2)ccc1C)c1nc2ccccc2[nH]1", "note": "(stereo unspecified)", "Potency": "inconclusive [activator, single point]"}, {"compound": "CC(C)(CNC(=O)c1cc(-c2ccc(Cl)s2)nc2ccccc12)N1CCOCC1", "Potency": "inconclusive [activator, single point]"}, {"compound": "O=C(Nc1cc2c(cc1Br)OCCO2)c1cccnc1", "Potency": "inactive"}, {"compound": "COc1ccc(C=O)cc1C1=CC(=O)C[C@H](c2ccc(Cl)cc2)C1", "Potency": "inconclusive [activator, single point]"}, {"compound": "COC(=O)CNc1c(-c2ccccc2)nc2ccc(Br)cn12", "Potency": "inconclusive [activator, single point]"}, {"compound": "Cn1cnc2c1c(=O)n(Cc1ccc(Cl)cc1Cl)c(=O)n2C", "Potency": "inconclusive [activator, full curve, poor fit]"}, {"compound": "O=C(Nc1ccn(Cc2ccc(Cl)cc2)n1)c1ccccc1", "Potency": "inconclusive [activator, partial curve, poor fit]"}, {"compound": "CC(C)(C)c1ccc(C(=O)OCCNC(=O)c2c(Cl)nc3ccccn23)cc1", "Potency": "inconclusive [activator, single point]"}, {"compound": "CC1(C)CC2(CCO1)OC(=O)CC2C(=O)Nc1ccccc1Cl", "note": "(stereo unspecified)", "Potency": "inconclusive [activator, single point]"}, {"compound": "O=C(CCl)Nc1cccc(S(=O)(=O)N2CCCCCC2)c1", "Potency": "inconclusive [activator, single point]"}, {"compound": "Oc1nc(Nc2ccc(F)cc2)sc1/C=C1\\C=Nc2ccccc21", "Potency": "active: 20.6 µM"}, {"compound": "Cc1cc(=O)n2[nH]c(SCc3ccccc3Cl)nc2n1", "Potency": "inconclusive [activator, single point]"}, {"compound": "CCCCn1c(-c2ccccc2C)nc2cc3[nH]c(=O)c(C(C)C)nc3cc21", "Potency": "inconclusive [activator, single point]"}, {"compound": "O=C(CCC1CCN(Cc2ccc(Cl)cc2)CC1)NC1CC1", "Potency": "inconclusive [activator, single point]"}, {"compound": "CCOC(=O)c1c(C)n(-c2ccc(C)cc2)c2c(C(C(C)=O)C(=O)O)c(Br)c(O)c(O)c12", "note": "(stereo unspecified)", "Potency": "inactive"}, {"compound": "CC1=CC2=NC(=O)/C(=C\\c3cccn3CCOc3ccccc3C)C(=N)N2O1", "Potency": "inactive"}, {"compound": "COc1c(Cl)cccc1-c1cn2ccc(C)cc2n1", "Potency": "inconclusive [activator, partial curve, poor fit]"}, {"compound": "O=C(c1cccc(NS(=O)(=O)c2ccccc2)c1)N1CCCC1", "Potency": "inconclusive [activator, full curve, poor fit]"}, {"compound": "COc1ccc2[nH]c(C(=O)O)c(NS(=O)(=O)c3ccc(Cl)s3)c2c1", "Potency": "inconclusive [activator, single point]"}, {"compound": "N#CCC(=O)N1CCN(C(c2ccccc2)c2ccccc2)CC1", "Potency": "inconclusive [activator, partial curve, poor fit]"}, {"compound": "O=c1c2c3c(sc2n2cnnc2n1-c1ccccc1)N(Cc1ccccc1)CCC3", "Potency": "inconclusive [activator, single point]"}, {"compound": "COC(=O)C1=C(CS(=O)(=O)c2ccccc2)NC(=O)NC1c1ccc(OC)c(OC)c1", "note": "(stereo unspecified)", "Potency": "inconclusive [activator, single point]"}, {"compound": "Cc1cc(C)nc(/N=C(\\N)Nc2ccc(-c3ccccc3)cc2)n1", "Potency": "inconclusive [activator, single point]"}, {"compound": "Nc1nc(N)nc(-c2cc(O)ccc2O)n1", "Potency": "inconclusive [activator, single point]"}, {"compound": "Cc1cc2oc(=O)sc2cc1NS(=O)(=O)c1ccccc1", "Potency": "inconclusive [activator, single point]"}, {"compound": "O=C1OCCN1C(=O)[C@H]1[C@H](c2ccc(Cl)cc2)C(c2cccc(Cl)c2)=NN1c1ccccc1", "Potency": "inconclusive [activator, full curve, poor fit]"}, {"compound": "O=C(Nc1nc(-c2cc(F)ccc2F)cs1)c1cccc(N2C(=O)CCC2=O)c1", "Potency": "inconclusive [activator, single point]"}, {"compound": "Cc1ccccc1OCc1nnc(SCc2cc(=O)[nH]c3ccccc23)n1-c1ccccc1", "Potency": "inconclusive [activator, single point]"}, {"compound": "CCCC(/C=C/c1ccc(OC(C)=O)cc1)=C1/c2ccccc2C(=O)N1c1ccccc1", "Potency": "inconclusive [activator, partial curve, poor fit]"}, {"compound": "COc1ccc(N2C3=C(C(=O)CC(C)(C)C3)C(c3cnn(C)c3)C3=C2CC(C)(C)CC3=O)cc1", "Potency": "inconclusive [activator, partial curve]"}, {"compound": "Cc1ccc2c(CC(=O)Nc3sccc3C(N)=O)coc2c1", "Potency": "inconclusive [activator, full curve, poor fit]"}, {"compound": "O=C(Nc1cccc(/C=C/c2ccccn2)c1)c1ccc(-n2cncn2)cc1", "Potency": "inconclusive [activator, single point]"}, {"compound": "CC(C)N1CCN(c2ccc(OCC3COC(Cn4cncn4)(c4ccc(Cl)cc4Cl)O3)cc2)CC1", "note": "(stereo unspecified)", "Potency": "inconclusive [activator, partial curve]"}, {"compound": "COc1ccccc1N1CCN(C(=O)c2cccc(S(=O)(=O)N3CCCCCC3)c2)CC1", "Potency": "inconclusive [activator, single point]"}, {"compound": "COc1ccc2ccccc2c1CN1CCN(C(=O)c2ccccc2)CC1", "Potency": "inactive"}, {"compound": "COc1cc(OC)c(OC)cc1/C=C1/Cc2ccccc2C1=O", "Potency": "inactive"}, {"compound": "c1ccc(C(c2nnnn2C2CCCC2)N2CCN(c3ccccc3)CC2)cc1", "note": "(stereo unspecified)", "Potency": "inconclusive [activator, single point]"}, {"compound": "CCOc1ccccc1Oc1c(C)oc2cc(OC(=O)N3CCOCC3)ccc2c1=O", "Potency": "inactive"}, {"compound": "O=C(CSc1nnc(-c2ccccn2)o1)Nc1ccccc1C(F)(F)F", "Potency": "inactive"}, {"compound": "CCOc1cc(Br)ccc1S(=O)(=O)NCc1ccccc1", "Potency": "inactive"}, {"compound": "COC(=O)c1[nH]c2ccc(C)cc2c1NS(=O)(=O)c1ccc(F)cc1", "Potency": "inconclusive [activator, partial curve, poor fit]"}, {"compound": "CC(CCc1ccccc1)NC(=O)COC(=O)c1cccnc1Cl", "note": "(stereo unspecified)", "Potency": "inconclusive [activator, single point]"}, {"compound": "O=C(Nc1ccc(Br)cc1)c1ccc(F)c(S(=O)(=O)NCc2cccs2)c1", "Potency": "inconclusive [activator, partial curve]"}]}]}
